Results on 26 molecules are retold here after the supplement of paper PMC11369174, “Proteome-scale characterisation of motif-based interactome rewiring by disease mutations” (Molecular Systems Biology, 2024).

Experiment [1] deals with T1, GGA1_VHS__Q9UJY5_1_157.
T1 chain: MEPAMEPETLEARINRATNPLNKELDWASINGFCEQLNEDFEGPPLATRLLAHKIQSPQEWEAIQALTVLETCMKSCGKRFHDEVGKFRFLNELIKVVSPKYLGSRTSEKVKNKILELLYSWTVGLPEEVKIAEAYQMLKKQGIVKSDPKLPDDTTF
Kind of experiment: mean normalised NGS count of phage-displayed peptide after selection on bait (% of reads); baits are purified protein domains named by gene / domain / UniProt id / residues; peptides come from disordered regions of human proteins; higher = stronger enrichment / binding.

Experiment [2] deals with T2, GGA3_VHS__Q9NZ52_1_166.
T2 chain: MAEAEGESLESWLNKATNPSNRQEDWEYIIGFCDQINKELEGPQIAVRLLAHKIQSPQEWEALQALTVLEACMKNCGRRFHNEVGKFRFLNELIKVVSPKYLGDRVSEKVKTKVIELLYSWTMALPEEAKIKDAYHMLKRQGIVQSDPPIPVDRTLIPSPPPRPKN
The description is as above.

Setting [3] is: replicate selections in which the peptide was seen: 5.
Where [4] appears, read: replicate selections in which the peptide was seen: 3.
Setting [5] is: replicate selections in which the peptide was seen: 6.
Setting [6] is: replicate selections in which the peptide was seen: 4.
Where [7] appears, read: replicate selections in which the peptide was seen: 2.

The list shows a part of the results. These are enrichments in a pooled selection; single values are uncertain.

Turning to LSTLPSQAMDDLMLSP [TP53 32-47 mut P04637.P34T], the “mean normalised NGS count” value in experiment [1] (setting [3]) was 3.77; in experiment [2] (setting [3]) it was 0.494. On to SWEDAALLTEANPPAP [BSCL2 351-366 mut Q96G97.L363P], for which, in experiment [1] (setting [4]), the “mean normalised NGS count” value amounted to 0.0141. DINILSLTDEEPSTSG [SOS1 182-197 wt]: the “mean normalised NGS count” value in experiment [1] (setting [3]) stood at 0.321. With YAWNADTDLVSWLSPH [PQBP1 64-79 mut O60828.Y65C], the “mean normalised NGS count” value in experiment [2] (setting [4]) worked out at 0.0266.

Regarding QQDEEMLELPAPAEVT [MLH1 426-441 mut P40692.A441T], the “mean normalised NGS count” value in experiment [1] (setting [3]) was 0.65; in experiment [2] (setting [5]), 1.27. The matching figures for QQDEEMLQLPAPAEVA [MLH1 426-441 mut P40692.E433Q]: 0.213 and 13.9.

Consider DAKLLAVGEDVAPGPL [NTRK1 607-622 mut P04629.G613V], for which the “mean normalised NGS count” value in experiment [1] (setting [3]) came to 0.429. Take HQDKRDDVLIGLKSAA [COQ2 253-268 mut Q96H96.T267A]: in experiment [1] (setting [4]), the “mean normalised NGS count” value is 0.0162.

Take RSDQIYWYWPEDNVAE [TTN 2120-2135 mut Q8WZ42.R2123Q]: the “mean normalised NGS count” value in experiment [2] (setting [6]) amounted to 0.275. Regarding NLGVEDVNLLRGEELS [POLR3B 517-532 mut Q9NW08.C527R], the “mean normalised NGS count” value in experiment [1] (setting [3]) was 5.4. Turning to TYASVGDQELLQITPQ [BRCA1 195-210 wt], the “mean normalised NGS count” value in experiment [1] (setting [3]) is 2.81; in experiment [2] (setting [7]), 0.0413. With QQDEEMLELPAPAKVA [MLH1 426-441 mut P40692.E439K], the “mean normalised NGS count” value was 0.795 in experiment [1] (setting [6]) and 5.71 in experiment [2] (setting [5]). For the molecule EVQPRNWLLFAAHATN [MPC1 72-87 mut Q9Y5U8.K72E], the “mean normalised NGS count” value in experiment [2] (setting [7]) was 0.026. For HQDKRDDVLIGLKSTA [COQ2 253-268 wt], the “mean normalised NGS count” value in experiment [1] (setting [6]) came out at 0.551. In the case of GGRWISDSHEDTGILD [MYBPC3 279-294 mut Q14896.R282W], the figures for the “mean normalised NGS count” value in experiment [1] (setting [3]) and in experiment [2] (setting [3]) were 1.85 and 0.318, respectively. In the same order, the values of AWNIAGTSENDDQLLF [DPF2 329-344 mut Q92785.C330W] are 1.53 and 0.169.

For QQELDDLLVDLDHQRQ [MYH9 1419-1434 wt], the “mean normalised NGS count” value is 2.65 in experiment [1] (setting [3]) and 0.391 in experiment [2] (setting [3]). For LSPLPSQAMDDLMLSP [TP53 32-47 wt], the results for the “mean normalised NGS count” value in experiment [1] (setting [3]) and in experiment [2] (setting [4]) were 1.7 and 0.0515, respectively. Consider IFALAVEDIETDTELL [PRDM5 105-120 mut Q9NQX1.Y107C], for which, in experiment [1] (setting [3]), the “mean normalised NGS count” value is 53.8. In the case of YVTLTWDPPLLDGGSK [TTN 22894-22909 mut Q8WZ42.S22894Y], the “mean normalised NGS count” value in experiment [1] (setting [4]) turned out to be 0.0166.

In the case of KLASNLGVEDENLLAG [POLR3B 513-528 mut Q9NW08.V523E], the “mean normalised NGS count” value in experiment [1] (setting [4]) was 0.0142. For SHGPDAKLLAVGEDVA [NTRK1 603-618 mut P04629.G613V], the “mean normalised NGS count” value in experiment [1] (setting [3]) was 0.559. As to AKASQEADSVLILQDR [TWNK 577-592 mut Q96RR1.N585S], the “mean normalised NGS count” value in experiment [1] (setting [3]) is 0.423. Consider LSPFPSQAMDDLMLSP [TP53 32-47 mut P04637.L35F], for which the “mean normalised NGS count” value in experiment [1] (setting [3]) amounted to 1.17; in experiment [2] (setting [6]), 0.255. As to DDLLVDLDHQRQSAAN [MYH9 1423-1438 wt], the “mean normalised NGS count” value in experiment [1] (setting [3]) came out at 3.27; in experiment [2] (setting [4]), 0.0257.

Consider KLASNLGVEDVNLLRG [POLR3B 513-528 mut Q9NW08.C527R], for which the “mean normalised NGS count” value in experiment [1] (setting [3]) was found to be 1.97.
